# Laboratory results taken from ChEMBL document CHEMBL4145660, “LLY-283, a Potent and Selective Inhibitor of Arginine Methyltransferase 5, PRMT5, with Antitumor Activity” (ACS Med Chem Lett, 2018).
# Columns and labels:
# [1] = molecular target: T1, Protein arginine N-methyltransferase 5 (Homo sapiens, UniProt O14744); assay: Inhibition of PRMT5 in human MCF7 cells assessed as reduction in SmBB'-Rme2s levels at 1 uM after 48 hrs by Western blot analysis relative to control; assay type: cell-based
# T1 sequence (O14744 whole entry): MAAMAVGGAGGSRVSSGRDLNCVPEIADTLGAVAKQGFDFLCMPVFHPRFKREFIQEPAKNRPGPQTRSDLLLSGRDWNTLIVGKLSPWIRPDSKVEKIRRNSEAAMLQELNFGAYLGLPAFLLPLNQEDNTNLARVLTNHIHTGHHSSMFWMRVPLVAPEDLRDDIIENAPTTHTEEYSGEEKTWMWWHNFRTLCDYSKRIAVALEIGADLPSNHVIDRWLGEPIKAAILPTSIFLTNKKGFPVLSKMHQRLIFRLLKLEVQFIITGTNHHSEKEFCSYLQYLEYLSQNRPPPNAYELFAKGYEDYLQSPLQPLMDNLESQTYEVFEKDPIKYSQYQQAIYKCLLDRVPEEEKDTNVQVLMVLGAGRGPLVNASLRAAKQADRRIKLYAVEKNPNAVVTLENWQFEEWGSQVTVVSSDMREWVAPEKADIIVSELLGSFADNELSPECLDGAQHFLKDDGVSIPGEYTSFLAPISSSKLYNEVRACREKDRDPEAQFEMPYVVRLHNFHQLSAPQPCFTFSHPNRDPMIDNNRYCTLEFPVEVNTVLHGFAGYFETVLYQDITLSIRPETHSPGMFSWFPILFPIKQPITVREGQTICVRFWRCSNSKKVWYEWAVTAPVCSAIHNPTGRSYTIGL
# Procedure, shortened: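 MCF7 cells were exposed for 48 h, and SmBB′-Rme2s was detected by Western blot and normalized to total SmBB′. Results are expressed as % of DMSO control, mean ± SEM of three replicates.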
# [2] = molecular target: T1, Protein arginine N-methyltransferase 5; assay: Inhibition of PRMT5 in human A375 cells assessed as skipping of Mdm4 exon 6 mRNA splicing after 72 hrs by qRT-PCR method
# KMS-12-BM = assay: Antiproliferative activity against human KMS-12-BM cells after 7 days by cell-titer glo based luminescence assay; assay type: functional
# Procedure, shortened: (§1)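 7-day proliferation run with CellTiter-Glo luminescence. Reported values are IC50 and maximum inhibition (%) for each cell line. Where the assay was repeated (A375, n = 3), IC50 is given as mean ± SEM.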
# OPM-2 = assay: Antiproliferative activity against human OPM2 cells after 7 days by cell-titer glo based luminescence assay; assay type: functional; procedure, shortened: as §1
# IM-9 = assay: Antiproliferative activity against human IM9 cells after 7 days by cell-titer glo based luminescence assay; assay type: functional; procedure, shortened: as §1
# [3] = molecular target: T1, Protein arginine N-methyltransferase 5; assay: Inhibition of PRMT5 in human MCF7 cells assessed as reduction in SmBB'-Rme2s levels after 48 hrs by Western blot analysis; assay type: cell-based
# Procedure, shortened: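 MCF7 cells were treated for 48 h over a concentration series, then SmBB′-Rme2s was measured by Western blot. Signal was normalized to total SmBB′, and IC50 came from a nonlinear dose–response fit.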
# NUGC-3 = assay: Antiproliferative activity against human NUGC3 cells after 7 days by cell-titer glo based luminescence assay; assay type: functional; procedure, shortened: as §1
# HEL 92.1.7 = assay: Antiproliferative activity against human HEL 92.1.7 cells after 7 days by cell-titer glo based luminescence assay; assay type: functional; procedure, shortened: as §1
# A-375 [4] = assay: Antitumor activity against human A375 cells xenografted in SCID nude mouse assessed as tumor growth inhibition at 20 mg/kg, po qd administered via gavage measured after 28 days; assay type: functional, organism-based
# Procedure, shortened: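 A375 xenografts grown subcutaneously in SCID mice; compound given orally once daily at 20 mg/kg for 28 days; tumor growth inhibition versus vehicle-treated tumors.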
# NCI-H2171 = assay: Antiproliferative activity against human NCI-H2171 cells after 7 days by cell-titer glo based luminescence assay; assay type: functional; procedure, shortened: as §1
# NCI-H1651 = assay: Antiproliferative activity against human NCI-H1651 cells after 7 days by cell-titer glo based luminescence assay; assay type: functional; procedure, shortened: as §1
# NCI-H1930 = assay: Antiproliferative activity against human NCI-H1930 cells after 7 days by cell-titer glo based luminescence assay; assay type: functional; procedure, shortened: as §1
# COLO-829 = assay: Antiproliferative activity against human COLO829 cells after 7 days by cell-titer glo based luminescence assay; assay type: functional
# [5] = molecular target: Histone-arginine methyltransferase CARM1 (Homo sapiens) (UniProt Q86X55); assay: Inhibition of PRMT4 (unknown origin) at 10 uM using peptide substrate measured after 2 hrs in presence of [3H]-SAM by topcount scintillation proximity assay
# Sequence of UniProt Q86X55 (Q86X55 whole entry): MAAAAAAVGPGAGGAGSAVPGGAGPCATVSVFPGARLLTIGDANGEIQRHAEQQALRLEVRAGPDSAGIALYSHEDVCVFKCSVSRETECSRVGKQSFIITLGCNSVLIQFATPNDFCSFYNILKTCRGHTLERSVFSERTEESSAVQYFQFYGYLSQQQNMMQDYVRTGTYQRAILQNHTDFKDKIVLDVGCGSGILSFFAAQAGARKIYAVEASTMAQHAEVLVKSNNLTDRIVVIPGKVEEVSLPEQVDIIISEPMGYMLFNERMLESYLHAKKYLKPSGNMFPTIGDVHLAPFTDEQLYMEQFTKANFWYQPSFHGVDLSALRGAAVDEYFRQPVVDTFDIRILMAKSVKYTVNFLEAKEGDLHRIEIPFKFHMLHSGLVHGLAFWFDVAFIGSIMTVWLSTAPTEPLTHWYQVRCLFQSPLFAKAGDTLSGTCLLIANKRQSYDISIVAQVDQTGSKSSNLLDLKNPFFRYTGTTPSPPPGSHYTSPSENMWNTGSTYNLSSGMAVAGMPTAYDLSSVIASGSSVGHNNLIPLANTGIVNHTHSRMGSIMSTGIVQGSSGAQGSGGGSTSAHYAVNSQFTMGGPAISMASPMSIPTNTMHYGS
# Procedure, shortened: (§2)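 Radioactive methyltransferase panel (32 enzymes); compound tested at 1 and 10 μM; methyl transfer from 3H-SAM measured.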
# [6] = molecular target: Protein arginine N-methyltransferase 6 (Homo sapiens) (UniProt Q96LA8); assay: Inhibition of PRMT6 (unknown origin) at 10 uM using peptide substrate measured after 2 hrs in presence of [3H]-SAM by topcount scintillation proximity assay; procedure, shortened: as §2
# Sequence of UniProt Q96LA8 (Q96LA8 whole entry, looked up): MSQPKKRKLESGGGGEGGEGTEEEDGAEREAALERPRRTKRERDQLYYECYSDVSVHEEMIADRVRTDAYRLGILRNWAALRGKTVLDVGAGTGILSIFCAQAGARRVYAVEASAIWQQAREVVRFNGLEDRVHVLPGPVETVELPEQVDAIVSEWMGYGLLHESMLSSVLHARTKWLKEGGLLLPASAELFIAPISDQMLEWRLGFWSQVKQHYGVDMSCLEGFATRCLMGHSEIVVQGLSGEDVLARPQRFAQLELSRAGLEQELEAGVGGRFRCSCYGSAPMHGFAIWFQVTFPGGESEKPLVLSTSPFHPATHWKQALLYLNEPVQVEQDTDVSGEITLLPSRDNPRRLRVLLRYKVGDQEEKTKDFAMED
# RPMI-8226 = assay: Antiproliferative activity against human RPMI8226 cells after 7 days by cell-titer glo based luminescence assay; assay type: functional; procedure, shortened: as §1
# [7] = Antiproliferative activity against human KE-97 cells after 7 days by cell-titer glo based luminescence assay; assay type: functional; procedure, shortened: as §1
# MV4-11 = assay: Antiproliferative activity against human MV4-11 cells after 7 days by cell-titer glo based luminescence assay; assay type: functional; procedure, shortened: as §1
# [8] = molecular target: Protein arginine N-methyltransferase 7 (Homo sapiens) (UniProt Q9NVM4); assay: Inhibition of PRMT7 (unknown origin) at 10 uM using peptide substrate measured after 2 hrs in presence of [3H]-SAM by topcount scintillation proximity assay; procedure, shortened: as §2
# Sequence of UniProt Q9NVM4 (Q9NVM4 whole entry): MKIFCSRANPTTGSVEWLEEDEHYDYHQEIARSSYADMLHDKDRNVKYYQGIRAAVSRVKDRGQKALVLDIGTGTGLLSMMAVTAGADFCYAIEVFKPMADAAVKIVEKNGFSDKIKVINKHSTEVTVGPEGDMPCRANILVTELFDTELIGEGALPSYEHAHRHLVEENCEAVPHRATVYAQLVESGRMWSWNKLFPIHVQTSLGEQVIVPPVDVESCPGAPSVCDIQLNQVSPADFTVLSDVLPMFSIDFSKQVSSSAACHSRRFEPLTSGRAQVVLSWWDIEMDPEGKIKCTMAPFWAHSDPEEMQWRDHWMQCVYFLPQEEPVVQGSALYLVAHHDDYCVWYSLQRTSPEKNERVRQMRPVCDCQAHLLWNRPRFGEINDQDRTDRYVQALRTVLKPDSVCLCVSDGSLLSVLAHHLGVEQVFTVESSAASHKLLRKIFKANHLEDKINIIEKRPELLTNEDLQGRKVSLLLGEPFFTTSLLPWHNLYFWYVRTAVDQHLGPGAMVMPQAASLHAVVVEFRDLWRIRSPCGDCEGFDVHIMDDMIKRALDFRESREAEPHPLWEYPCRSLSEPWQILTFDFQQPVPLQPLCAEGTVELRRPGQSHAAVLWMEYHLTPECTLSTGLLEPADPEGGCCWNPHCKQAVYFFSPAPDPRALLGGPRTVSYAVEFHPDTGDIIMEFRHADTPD
# GAK = assay: Antiproliferative activity against human GAK cells after 7 days by cell-titer glo based luminescence assay; assay type: functional
# Mus musculus [9] = assay: Toxicity in SCID nude mouse xenografted with human A375 cells at 20 mg/kg, po qd administered via gavage measured after 28 days; assay type: organism-based; conditions: in vivo, 672 h
# A2058 = assay: Antiproliferative activity against human A2058 cells after 7 days by cell-titer glo based luminescence assay; assay type: functional
# Daudi = assay: Antiproliferative activity against human Daudi cells after 7 days by cell-titer glo based luminescence assay; assay type: functional; procedure, shortened: as §1
# Mus musculus [10] = assay: Toxicity in SCID nude mouse xenografted with human A375 cells assessed as body weight loss at 20 mg/kg, po qd administered via gavage measured after 28 days; assay type: organism-based; conditions: in vivo, 672 h
# MX1 = assay: Antiproliferative activity against human MX1 cells after 7 days by cell-titer glo based luminescence assay; assay type: functional; procedure, shortened: as §1
# NCI-H2122 = assay: Antiproliferative activity against human NCI-H2122 cells after 7 days by cell-titer glo based luminescence assay; assay type: functional; procedure, shortened: as §1
# UACC-812 = assay: Antiproliferative activity against human UACC-812 cells after 7 days by cell-titer glo based luminescence assay; assay type: functional; procedure, shortened: as §1
# Rec1 = assay: Antiproliferative activity against human Rec1 cells after 7 days by cell-titer glo based luminescence assay; assay type: functional
# Procedure, shortened: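 7-day proliferation assay in cancer cell lines, viability read by CellTiter-Glo luminescence; IC50 and maximal inhibition derived from dose response.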
# [11] = Antiproliferative activity against human T-42D cells after 7 days by cell-titer glo based luminescence assay; assay type: functional; procedure, shortened: as §1
# ARH-77 = assay: Antiproliferative activity against human ARH77 cells after 7 days by cell-titer glo based luminescence assay; assay type: functional; procedure, shortened: as §1
# KARPAS-422 = assay: Antiproliferative activity against human KARPAS422 cells after 7 days by cell-titer glo based luminescence assay; assay type: functional; procedure, shortened: as §1
# HCC1937 = assay: Antiproliferative activity against human HCC1937 cells after 7 days by cell-titer glo based luminescence assay; assay type: functional; procedure, shortened: as §1
# OVCAR-3 = assay: Antiproliferative activity against human OVCAR3 cells after 7 days by cell-titer glo based luminescence assay; assay type: functional
# A-375 [12] = assay: Antiproliferative activity against human A375 cells after 7 days by cell-titer glo based luminescence assay; assay type: functional; procedure, shortened: as §1
compound,measurement,setting,value
Nc1ncnc2c1ccn2[C@@H]1O[C@H]([C@@H](O)c2ccccc2)[C@@H](O)[C@H]1O,inhibition,[1],20%
Nc1ncnc2c1ccn2[C@@H]1O[C@H]([C@H](O)c2ccccc2)[C@@H](O)[C@H]1O,EC50,[2],0.04 µM
same,Imax,KMS-12-BM,99%
same,IC50,"KMS-12-BM; Homo sapiens, KMS-12-BM, 168 h",0.006 µM
same,Imax,OPM-2,22.5%
same,IC50,"OPM-2; Homo sapiens, OPM-2, 168 h",> 2.5 µM
same,Imax,IM-9,93%
same,IC50,"IM-9; Homo sapiens, IM-9, 168 h",0.046 µM
same,IC50,[3],0.025 µM
same,inhibition,[3],Dose-dependent effect
same,Imax,NUGC-3,92%
same,IC50,"NUGC-3; Homo sapiens, NUGC-3, 168 h",0.017 µM
same,Imax,HEL 92.1.7,91.2%
same,IC50,"HEL 92.1.7; Homo sapiens, HEL 92.1.7, 168 h",0.003 µM
same,TGI,A-375 [4],Active
same,Imax,NCI-H2171,97.7%
same,IC50,"NCI-H2171; Homo sapiens, NCI-H2171, 168 h",0.01 µM
same,Imax,NCI-H1651,32%
same,IC50,"NCI-H1651; Homo sapiens, NCI-H1651, 168 h",> 2.5 µM
same,Imax,NCI-H1930,49.6%
same,IC50,"NCI-H1930; Homo sapiens, NCI-H1930, 168 h",> 2.5 µM
same,Imax,COLO-829,51%
same,IC50,"COLO-829; Homo sapiens, COLO-829, 168 h",0.013 µM
same,inhibition,[5],inactive
same,inhibition,[6],inactive
same,Imax,RPMI-8226,88.5%
same,IC50,"RPMI-8226; Homo sapiens, RPMI-8226, 168 h",0.009 µM
same,Imax,[7],95.7%
same,IC50,"[7]; Homo sapiens, KE-97, 168 h",0.024 µM
same,Imax,MV4-11,93%
same,IC50,"MV4-11; Homo sapiens, MV4-11, 168 h",0.016 µM
same,inhibition,[8],inactive
same,Imax,GAK,99.9%
same,IC50,"GAK; Homo sapiens, GAK, 168 h",0.016 µM
same,Activity,Mus musculus [9],Non-Toxic
same,Imax,A2058,96%
same,IC50,"A2058; Homo sapiens, A2058, 168 h",0.013 µM
same,Imax,Daudi,99.3%
same,IC50,"Daudi; Homo sapiens, Daudi, 168 h",0.017 µM
same,Activity,Mus musculus [10],< 10%
same,Imax,MX1,36.9%
same,IC50,"MX1; Homo sapiens, MX1, 168 h",> 2.5 µM
same,Imax,NCI-H2122,90%
same,IC50,"NCI-H2122; Homo sapiens, NCI-H2122, 168 h",0.027 µM
same,Imax,UACC-812,21%
same,IC50,"UACC-812; Homo sapiens, UACC-812, 168 h",> 2.5 µM
same,Imax,Rec1,99.7%
same,IC50,"Rec1; Homo sapiens, Rec1, 168 h",0.022 µM
same,Imax,[11],84%
same,IC50,"[11]; Homo sapiens, 168 h",0.003 µM
same,Imax,ARH-77,97.2%
same,IC50,"ARH-77; Homo sapiens, ARH-77, 168 h",0.01 µM
same,Imax,KARPAS-422,99.9%
same,IC50,"KARPAS-422; Homo sapiens, KARPAS-422, 168 h",0.085 µM
same,Imax,HCC1937,83%
same,IC50,"HCC1937; Homo sapiens, HCC1937, 168 h",0.03 µM
same,Imax,OVCAR-3,95%
same,IC50,"OVCAR-3; Homo sapiens, OVCAR-3, 168 h",0.032 µM
same,Imax,A-375 [12],91.1%
same,IC50,"A-375 [12]; Homo sapiens, A-375, 168 h",0.037 to 0.046 µM

# The source made the active and inactive calls. No cut-off for these calls is given here.
